Whole data set: some 33,000 sequences, median “E-score (-0.5 to 0.5)” near -0.011, cut for the highest 2% near 0.28. Some of the results follow.

The experiment has as its target T1, Gcr1 (UniProt P07261).
T1 sequence: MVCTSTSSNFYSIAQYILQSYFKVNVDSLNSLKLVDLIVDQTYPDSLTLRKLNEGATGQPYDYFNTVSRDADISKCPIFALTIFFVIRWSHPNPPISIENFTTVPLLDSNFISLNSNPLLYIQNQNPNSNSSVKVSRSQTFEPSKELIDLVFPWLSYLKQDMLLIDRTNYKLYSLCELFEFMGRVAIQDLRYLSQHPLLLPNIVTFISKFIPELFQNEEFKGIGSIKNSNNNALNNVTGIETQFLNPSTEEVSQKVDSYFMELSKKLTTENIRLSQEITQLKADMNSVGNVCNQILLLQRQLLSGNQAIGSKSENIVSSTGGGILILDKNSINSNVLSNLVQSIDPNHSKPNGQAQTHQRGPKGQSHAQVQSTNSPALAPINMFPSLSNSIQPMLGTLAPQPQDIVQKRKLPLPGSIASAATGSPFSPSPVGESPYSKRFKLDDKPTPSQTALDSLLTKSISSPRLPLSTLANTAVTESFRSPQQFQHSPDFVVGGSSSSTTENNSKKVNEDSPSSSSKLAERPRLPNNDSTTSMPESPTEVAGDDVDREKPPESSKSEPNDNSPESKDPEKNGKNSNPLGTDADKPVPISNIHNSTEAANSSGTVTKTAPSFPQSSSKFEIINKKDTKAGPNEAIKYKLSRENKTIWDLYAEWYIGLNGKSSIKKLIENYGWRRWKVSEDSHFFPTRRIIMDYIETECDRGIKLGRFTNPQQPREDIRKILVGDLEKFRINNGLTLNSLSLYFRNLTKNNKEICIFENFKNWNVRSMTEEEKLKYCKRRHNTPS
Kind of experiment: PBM E-score (8-mer binding enrichment) (E-score (-0.5 to 0.5)); higher = stronger / more preferred TF binding; most listed sequences are background and not binding sites. Conditions: protein concentration: 100 nM; construct: GST-full length. In a few lines: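 Detection of bound protein used fluorescent anti-GST, with scans normalised by masliner. The proteins were GST-tagged yeast transcription factors applied at about 100-200 nM to universal all-10-mer Agilent arrays made double-stranded by primer extension. Each ungapped eight-base word, pooled with its reverse complement, was scored with an E-score from the Universal PBM Analysis Suite.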
With GCCTTCAC, the “PBM E-score” value was -0.0793.

In the case of AGGGGTTA, the “PBM E-score” value was -0.0231.

In the case of CATCTAAG, the “PBM E-score” value is -0.126.

AGACCTAC: the “PBM E-score” value was -0.175.

On to TCGATAAA, for which the “PBM E-score” value is 0.226.

For CACTTTGG, the “PBM E-score” value was -0.0459.

Turning to AGACGGCC, the “PBM E-score” value is -0.104.

Consider GCGAAAAA, for which the “PBM E-score” value was found to be 0.105.

AAATGGGA: the “PBM E-score” value stood at 0.194.

In the case of CAAATTGG, the “PBM E-score” value was 0.213.

For CGTGGATC, the “PBM E-score” value is 0.00349.

Take GATGGCGC: the “PBM E-score” value was 0.0734.

As to ACTACTAT, the “PBM E-score” value turned out to be 0.218.

In the case of GTCACACA, the “PBM E-score” value was -0.118.

As for CTGTCAAA, the “PBM E-score” value was -0.132.

Take ATAGGCAT: the “PBM E-score” value stood at 0.157.

Take AATCAACA: the “PBM E-score” value came out at 0.0866.

Take CTTGAGCC: the “PBM E-score” value is -0.0761.

GAGCTCTA: the “PBM E-score” value is -0.172.

Consider CGCCTGGA, for which the “PBM E-score” value was found to be 0.141.

For the sequence CTGTCGCC, the “PBM E-score” value was -0.127.

Regarding GCGAGTCC, the “PBM E-score” value was -0.0562.

Consider ATCGGGCC, for which the “PBM E-score” value is -0.0384.

GACTCGAA: the “PBM E-score” value came out at 0.081.

On to TAATTCAA, for which the “PBM E-score” value was found to be 0.015.

Consider ACGTAAGA, for which the “PBM E-score” value was -0.11.

As for AAGCAGAC, the “PBM E-score” value was 0.134.

AGTGGAAA: the “PBM E-score” value came out at 0.0918.

As for CCGTGCGA, the “PBM E-score” value was -0.00782.

As to CTGAAAGA, the “PBM E-score” value is -0.0374.

For the sequence TCTAGACA, the “PBM E-score” value was -0.0816.

On to ACATCTAG, for which the “PBM E-score” value stood at 0.0353.

CTTCATAC: the “PBM E-score” value was 0.0389.

For ATCAACAC, the “PBM E-score” value came to 0.0425.

Take GATTTGCA: the “PBM E-score” value turned out to be 0.0462.

With AACTCCTG, the “PBM E-score” value was -0.165.

As to AACCGATA, the “PBM E-score” value was -0.116.

For the sequence TATCTCAA, the “PBM E-score” value amounted to 0.136.

Consider CCATCCCG, for which the “PBM E-score” value is -0.248.

For AAAAGATA, the “PBM E-score” value amounted to 0.0439.

With CTTATCCA, the “PBM E-score” value was determined as 0.0373.

With ACCATGGC, the “PBM E-score” value was -0.045.

GCCTTCGA: the “PBM E-score” value was -0.126.

On to GGCAATAC, for which the “PBM E-score” value is -0.0435.

With CGAGACCG, the “PBM E-score” value was -0.0969.

ACGGCTCA: the “PBM E-score” value is -0.123.

Regarding ATACTAAC, the “PBM E-score” value was -0.0352.

With CAGAAGCA, the “PBM E-score” value was determined as 0.0126.

ACGTGCTC: the “PBM E-score” value is 8e-05.

Consider TCAACAGA, for which the “PBM E-score” value amounted to 0.155.

CGCAGTGC: the “PBM E-score” value is -0.211.

For ACGTATCG, the “PBM E-score” value is -0.0854.

For AGCGAGAA, the “PBM E-score” value was -0.0984.

Consider CTTATTAC, for which the “PBM E-score” value is 0.0948.

For ACCGTGCC, the “PBM E-score” value is -0.175.

Take CGGAATTC: the “PBM E-score” value worked out at 0.242.

CACGTAGG: the “PBM E-score” value is -0.0372.

ACGTACTG: the “PBM E-score” value was -0.192.

Regarding CCCGGGCG, the “PBM E-score” value came out at 0.209.

ATGTATTC: the “PBM E-score” value came out at 0.0999.

As to ACACCTGC, the “PBM E-score” value is -0.178.

On to TCCTGTAA, for which the “PBM E-score” value is 0.354.

Take ACAATTCA: the “PBM E-score” value was -0.115.

As to GATCACCC, the “PBM E-score” value is -0.0494.

ACTGCTGG: the “PBM E-score” value was -0.134.

On to CGTGCACC, for which the “PBM E-score” value was -0.103.

Turning to ACCTACTG, the “PBM E-score” value is 0.00657.

Regarding CTGCGAGA, the “PBM E-score” value was -0.0273.

With CTACCCAC, the “PBM E-score” value is -0.123.

Take AAAGTTTG: the “PBM E-score” value turned out to be 0.139.

GCTCAGTA: the “PBM E-score” value worked out at 0.14.

Regarding ACGAGTAA, the “PBM E-score” value was -0.0078.

As to ATACAGCG, the “PBM E-score” value was -0.0978.

With CTTATAAC, the “PBM E-score” value is -0.0336.

Turning to CTCGGCCA, the “PBM E-score” value was -0.271.

Regarding GCCTTCCA, the “PBM E-score” value was 0.184.

Turning to AATTGGCC, the “PBM E-score” value is -0.0021.

ATTTATAC: the “PBM E-score” value was 0.124.

On to ACCTAGAA, for which the “PBM E-score” value was found to be 0.0544.

In the case of ACCTTATA, the “PBM E-score” value was -0.00363.

On to CCAAACGG, for which the “PBM E-score” value is -0.00574.

GACCCGAC: the “PBM E-score” value was -0.241.

With TATCATGA, the “PBM E-score” value is -0.0571.

Consider CCGGTTAA, for which the “PBM E-score” value was 0.141.

For CGTTACTC, the “PBM E-score” value was -0.326.

With GGGGAGAA, the “PBM E-score” value is -0.0346.

Consider CGCCCCCC, for which the “PBM E-score” value was -0.0501.

For AGCCGGAC, the “PBM E-score” value is -0.0174.

As to CGCAGGTA, the “PBM E-score” value was -0.0399.

Regarding CCTTAAGA, the “PBM E-score” value is -0.0562.

As to GAACAGAA, the “PBM E-score” value is -0.0321.

Regarding AAGCGGGT, the “PBM E-score” value came to 0.0929.

As to ATTCCCTC, the “PBM E-score” value was -0.1.

CCAATGTA: the “PBM E-score” value worked out at 0.0497.

The values are drawn from the supplement of paper PMC3334620.
